Data from PubChem BioAssay AID652104 (National Center for Advancing Translational Sciences (NCATS), 2013).
In all, about 410,000 compounds went through this assay and about 7,200 (1.8%) were called active. Inconclusive means that the source gave no clear call. Such entries were picked first, then a sample of the others. Calls follow the shape of the dose curve; as a rule, active = well fitted activation curve with a large enough effect; inconclusive = small, poorly fitted or top-dose-only effect, or another doubt; inactive = no such curve, though single readings can be large or run the other way. A potency beside an inconclusive call is a rough fit, not a confirmed value.

assay: qHTS of TDP-43 Inhibitors; settings: TDP-43 expressing yeast growth rescue, BacTiter-Glo, 24 h; growth rescue (activation): at 46.1 µM (top of the series) unless noted; also: nearly all actives have a fitted effect of over 50% in size; as to growth rescue (activation): % of control where 0% means no effect
Source text: The goal of this project is to identify new chemical probes capable of reversing the toxicity associated with TDP-43 which is associated with frontotemporal lobar degeneration and amyotrophic lateral sclerosis. These compounds will provide a complementary approach to deciphering the tangled mechanisms of toxicity and protection that we have uncovered through genome-wide genetic screens and are beginning to uncover in a large-scale proteomics analysis with mass spectroscopy.
To this end, a miniaturized assay was developed to be screened against the Molecular Libraries Small Molecule Repository (MLSMR) to discover TDP-43 inhibitors. Please note that in the set-up this yeast-based assay compounds that inhibit as TDP-43, have a read-out as activators.
NIH Chemical Genomics Center [NCGC]
NIH Molecular Libraries Probe Centers Network [MLPCN]
Assay Submitter (PI): Susan Lindquist, Whitehead Institute/MIT
Dispense 2.5 microL yeast galactose medium per 1536-well plate, pin compound, dispense 2.5 microL TDP-43 expressing yeast in galactose medium at OD600=0.02 (pregrown in raffinose medium to mid-log phase) per well, incubate for 24 hr at 30 deg C, and cell growth will be measured using 5 microL of Bactiter/Glo reagent to entire plate and read using Luminescence Protocol in ViewLux.
Potency is read from the fitted curve at half-maximal effect; tags tell the direction and shape of the fitted curve.

Potency, inactive:
OCCN1CCN(C(=S)Nc2cccc(C(F)(F)F)c2)CC1

Potency, inconclusive:
Cc1onc(-c2ccccc2)c1-c1nnc(CN2CCN(S(=O)(=O)c3ccccc3F)CC2)o1 35.5 µM [activator, partial curve]
CC(=O)N1c2ccccc2CCc2ccc([N+](=O)[O-])cc21 7.94 µM [activator, full curve]
COc1ccc(-c2cc(C(=O)N3CCN(c4ccccc4O)CC3)c3ccccc3n2)cc1OC 17.8 µM [activator, single point]
O=C1CC2(CCN(C(=O)COc3ccc(Cl)cc3)CC2)Oc2ccccc21 31.6 µM [activator, single point]
COc1ccccc1-c1oc2ccccc2c1-c1ccc2cc[nH]c2c1 11.2 µM [activator, partial curve]
O=C(COc1c(Cl)cccc1Cl)Nc1ccccc1N1CCCC1 11.2 µM [activator, partial curve]
O=C1C=CC(=O)C(C2=C3C(=O)N(CCc4ccccc4)CC(=O)N3CCC2)=C1 14.1 µM [activator, partial curve]
Cc1cc(C(=O)CSc2nc3ccc(Cl)cc3[nH]2)c(C)n1C 22.4 µM [activator, single point]
Clc1nccc(NCc2ccccc2)n1 35.5 µM [activator, single point]
O=C(/C=C/c1ccc(Cl)cc1)NC(=S)Nc1ccc(N2CCOCC2)c(Cl)c1 0.316 µM [activator, full curve, poor fit]
CN(C)c1ccc(C(=O)NCCCSc2ccccc2)cc1 12.6 µM [activator, partial curve]
Cc1ccc(-c2csc(N(CCO)CCCn3c(C(F)(F)F)nc4ccccc43)n2)cc1 25.1 µM [activator, single point]
CCOc1ccc(NC(=O)CSc2nccn2-c2cccc(C)c2C)cc1 25.1 µM [activator, single point]
Oc1ccc(Cl)c2cccnc12 11.2 µM [activator, single point]
Cc1cccc(COC[C@H](Cc2ccccc2)N2CCN(C(=O)c3cccc(C)c3)CCC2=O)c1 20 µM [activator, partial curve]
CC(=O)c1cnc2c(-c3ccccc3)c(C(F)(F)F)nn2c1C 3.55 µM [activator, partial curve]
O=C(Nc1nnc(-c2ccccn2)o1)c1ccc(Br)cc1 31.6 µM [activator, single point]
COC(=O)c1ccsc1NC(=O)C1=COCCO1 12.6 µM [activator, partial curve]
O=C(CCl)Nc1c(C(=O)Nc2ccc3c(c2)OCCO3)oc2ccccc12 3.55 µM [activator, single point]
CC(C)c1ccc(NC(=O)CSC2=Nc3ccccc3C3=NC(CC(=O)NCc4ccc(F)cc4)C(=O)N23)cc1 (configuration not stated) 35.5 µM [activator, single point]
CC(=O)Nc1cc(-c2ccc(C(=O)N3CCOCC3)cc2)cn2c(-c3cccc(C(C)=O)c3)cnc12 35.5 µM [activator, single point]
CN(C)S(=O)(=O)N1CCN(c2ccc(Cl)cc2)CC1 11.2 µM [activator, partial curve]
Cc1cc(Sc2nc(N)ncc2[N+](=O)[O-])ncn1 17.8 µM [activator, partial curve, poor fit]
FC(F)(F)c1ccccc1Cc1c(C2CCCCC2)nc2ccc(Br)cn12 31.6 µM [activator, single point]
CCc1nnc(NC(=O)c2ccc(S(=O)(=O)N(C)Cc3ccccc3)cc2)o1 28.2 µM [activator, single point]
COc1cccc(N2CCN(C(=O)c3cccc(NC(=O)c4nsc5ccccc45)c3)CC2)c1 35.5 µM [activator, partial curve, poor fit]
Cc1ccccc1S(=O)(=O)NC(=O)C1(C)CCN1C(=O)C(C)(C)c1ccccc1 (configuration not stated) 31.6 µM [activator, single point]
CCOC(=O)[C@H]1[C@H]2COc3ccc(OC)cc3[C@@H]2N2C(=O)c3ccc(C)cc3NC(=O)[C@@]12C 35.5 µM [activator, partial curve, poor fit]
S=c1[nH]nc(-c2ccco2)n1/N=C/c1ccc(Br)s1 14.1 µM [activator, single point]
CC1(C(=O)NC(=S)NNC(=O)c2ccncc2)CCCCC1 15.8 µM [activator, single point]
S=C(N/N=C/c1ccc(Cl)cc1)N1CCOCC1 8.91 µM [activator, partial curve]
CCOC(=O)c1c(C=O)c(C)n(Cc2ccccc2)c1C 28.2 µM [activator, partial curve]
CCSc1nnc(Nc2ccccc2)s1 11.2 µM [activator, partial curve, poor fit]
c1ccc(Oc2ccc(-c3ccnc4ncnn34)cc2)cc1 35.5 µM [activator, single point]
O=C(Nc1ccccc1N1CCOCC1)c1ccc(OCc2cscn2)cc1 11.2 µM [activator, partial curve, poor fit]
CC(=O)c1c(C)[nH]c(=S)c(C#N)c1-c1ccc(Cl)cc1 17.8 µM [activator, partial curve, poor fit]
Cc1cc(C)nc(-n2nc(C)cc2Nc2ccccc2)n1 35.5 µM [activator, single point]
CCN(CC)C(=O)c1sc2nc(N3CCOCC3)c3c(c2c1N)CCCC3 20 µM [activator, single point]
CC1CCN(S(=O)(=O)c2ccc(NC(=O)c3ccccc3F)cc2)CC1 17.8 µM [activator, partial curve]
CCCC(=O)NC(=S)Nc1ccc(Cl)cn1 0.794 µM [activator, full curve, poor fit]
O=C(c1ccccc1)c1ccc2ccccc2n1 3.16 µM [activator, single point]
CC1(C)CC(=O)C(C=NCCN2CCN(C3CC(=O)N(c4ccc(Br)cc4)C3=O)CC2)=C(O)C1 (configuration not stated) 22.4 µM [activator, partial curve]
CC(C)C(=O)N1CCN(c2ccc([N+](=O)[O-])cc2Cl)CC1 35.5 µM [activator, single point]
CCc1nnc(SCC(=O)N(C)c2ccccc2)c2cc3sccc3n12 35.5 µM [activator, single point]
COc1ccc(NC(=O)CSc2ccc3nnc(CCNC(=O)c4ccccc4)n3n2)cc1OC 4.47 µM [activator, full curve, poor fit]
Cc1ccc(CSCC(=O)NCc2ccc(F)cc2)cc1 22.4 µM [activator, partial curve]
O=C1N=c2ccccc2=C1c1c(O)n(-c2cccc(F)c2)[nH]c1=O 35.5 µM [activator, single point]

Potency, active:
CC(=O)/C=C1\OCc2cc(OCc3ccccc3)ccc21 10 µM
O=S(=O)(NCC(c1ccco1)S(=O)(=O)c1cccs1)c1ccc(F)c(C(F)(F)F)c1 (configuration not stated) 0.891 µM
COc1cc(/C=C(/C#N)C(=O)NCc2ccccc2)cc(OC)c1OC 20 µM
O=C(/C=C/c1ccccc1)NC(=S)NNC(=O)c1ccco1 11.2 µM
O=C(c1ccccc1)N1CCN(c2ncnc3sc4c(c23)CCC4)CC1 22.4 µM

Growth rescue (activation), inactive:
COCCNC(=O)CCn1c(=O)[nH]c2cc(OC)c(OC)cc2c1=O -2.59%
CCOc1ccc(CCNC(=O)Cn2ccc3cc(S(=O)(=O)N4CCCCCC4)ccc32)cc1 -8.67%
Cc1cccc(N2CCN(C(=O)C3CCCN(C(=O)c4cc5sccc5n4C)C3)CC2)c1C (configuration not stated) 0%
CC(=O)C1=C(C)NC(=O)NC1c1ccc2c(c1)OCO2 (configuration not stated) -15%
Cc1oc2ccc(OCc3ccc(Cl)cc3)cc2c1C(=O)O -13.3%
CN(C(=O)c1ccc2c(=O)n3c(nc2c1)CCCCC3)c1cccc(Cl)c1 18.5%
COc1ccc(CCNC(=O)C2=C(C)C(=O)OC23CCCCC3)c(OC)c1OC 24.4%
CCc1ccccc1NC(=O)Nc1cc(C(=O)NCc2ccc(C(C)C)cc2)ccc1N1CCCC1 -0.504%
COc1ccc(C2=Nc3ccccc3N(C(=O)c3ccc(C(F)(F)F)cc3)C2C(=O)NCc2ccccc2)cc1 (configuration not stated) -1.59%
O=C(Nc1ccc(Br)cn1)c1ccc2ccccc2c1 8.12%
COc1cc(-c2noc(CSc3nc(-c4ccccc4)cc(=O)[nH]3)n2)cc(OC)c1OC 1.02%
Cc1cccc(NC(=O)c2sc(C)nc2C)c1 17%
Cc1ccc(-n2nc(C)c3c(C)cc(=O)n(CC(=O)Nc4ccc(Br)cc4F)c32)cc1 -26.1%
O=C(NCCCN1CCCC1)c1cc2c(Cl)nc3ccccc3c2s1 -0.133% [at 0.397 µM]
